Experimental data: PubChem BioAssay AID1963576 (National Center for Advancing Translational Sciences (NCATS), 2024)
The campaign covered roughly 46,000 compounds. About 60 (0.1%) were called active. Another 3% or so got no clear call; they are omitted. Calls come from the whole dose curve; as a rule, active = well fitted inhibition curve with a large enough effect; inconclusive = small, poorly fitted or top-dose-only effect; inactive = no such curve, though single readings can be large or run the other way. The list shows a part of the results.

assay: Primary qHTS assay for Inhibitors of ovarian cancer metastasis using an organotypic tumor microenvironment (TME) model.; note: nearly all actives have a fitted effect of over 65% in size;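 for activity change, negative = inhibition: plate controls were DMSO wells for no effect and tomatine positive control wells for full effect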; details: SKOV3ip1-GFP adhesion/invasion on 3D omental model, fluorescence; series mostly up to 45.8 µM; activity change, negative = inhibition: at the top concentration
In short: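 qHTS, 4-pt dose (0.36-46 umol/L); SKOV3ip1-GFP, 1,200 cells/well, no FBS; primary omental fibroblast/mesothelial co-culture 48 h pre-grown; 2 h RT + 16 h 37 C; PBS wash, 4% PFA; GFP count 488/509 nm.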

Activity change, negative = inhibition, inactive:
COc1cc(C(=O)N(CCCN(C)C)c2nc3c(OC)cccc3s2)cc(OC)c1OC 0.0491%, O=C(NCCc1csc(-c2cccc(F)c2)n1)c1ccco1 2.63%, COc1cc(-c2cc3n(C)c(C)c(CCC(=O)NC4CCC(C)CC4)c(=O)n3n2)cc(OC)c1OC (centres undefined) -9.24%, Cc1nn2c(=O)cc(COC(=O)c3ccccc3NC(=O)C3CCCCC3)nc2s1 0.0512%, COc1ccc2c(c1)CC(C(=O)Nc1c(C)cc(C)cc1C)CO2 (centres undefined) -7.56%, NS(=O)(=O)c1ccc(CCNC(=O)Cn2c(=O)c3cccn3c3ccc(F)cc32)cc1 -1.14%, NC(=O)COc1ccc(-c2noc(COc3ccc(Cl)cc3)n2)cc1 14.2%, COc1cccc2c1Oc1ncccc1N(C(=O)CCC(=O)NCc1ccc(OC(C)C)cc1)C2 9.53%, COc1cccc(NC(=O)CSC2=Nc3ccccc3C3=NC(CCC(=O)NC4CCCCC4)C(=O)N23)c1 (centres undefined) 8.71%, COc1ccc(OC)c(NC(=O)CCCOc2cc(=O)n(C)c3ccccc23)c1 -4.51%, Cc1ccc(-n2c3c(c(=O)[nH]c2=O)C(NC(=O)C(C)(C)C)(C(F)(F)F)C(=O)N3)cc1 (centres undefined) 2.27%, O=C(Nc1cccc(F)c1)C1CCN(c2nc3ccccc3nc2C(F)(F)F)CC1 63.9%, Cn1c(=O)n(C)c2cc(NS(=O)(=O)c3ccc(Cl)cc3)c(NCc3ccccc3)cc21 -0.923%, COc1cccc(C(=O)NCC(c2ccc3c(c2)OCO3)N2CCN(C)CC2)c1 (centres undefined) -6.5%, COc1cc(CNCCCSc2nnnn2C)cc(Br)c1OC -5.07%, Cc1nnc(SCC(=O)NCc2cccc(F)c2)c2nn(-c3ccccc3)c(C)c12 -4.08%, O=C(NCCn1cc(SCc2ccc(C(F)(F)F)cc2)c2ccccc21)c1cccs1 9.95%, Cc1ccc2nc(-c3ccc(N4CCOCC4)cc3)c(Nc3ccccc3C)n2c1 -26.1%, O=C(CN1C(=O)COc2ccc(S(=O)(=O)NC3CCCC3)cc21)Nc1ccc(F)c(Cl)c1 14.2%, Cc1ccc(-n2ncc(C(=O)NCCN3CCc4ccccc4C3)c2C2CCN(C(=O)OC(C)(C)C)CC2)c(C)c1 7.31%, CNC(=O)C1CCC(Cn2c(=O)c3sccc3n(CC(=O)Nc3ccc(C)cc3C)c2=O)CC1 (centres undefined) -4.22%, Cc1ccc(NC(=O)Nc2csc3c2CCCC3)c(C)c1 19%, COc1ccccc1CNc1ncnc2onc(-c3ccc(Cl)cc3)c12 8.56%, CN(c1nnc(NC(=O)Nc2ccc(Br)cc2)s1)C1CCCCC1 3.28%, CCOC(=O)c1c(NC(=O)c2cc(=O)c3c(C)cc(C)cc3o2)sc(C)c1C 2.44%, NC(=O)C1CCN(C(=O)c2ccccc2NC(=O)c2nsc3ccccc23)CC1 2.44%, CCCS(=O)(=O)NCCc1sc2nc(-c3ccc(Cl)cc3)nn2c1C -8%, Cc1cc(C(=O)Nc2ccc(Cl)cc2)c2c(C)nn(-c3ccccc3)c2n1 11.9%, Brc1ccc(-c2csc(-c3nc(-c4ccc(Br)s4)cs3)n2)cc1 0.551%, CCOc1ccc(N(CC(=O)NCc2ccc(C)cc2)S(=O)(=O)c2c(C)[nH]c(=O)[nH]c2=O)cc1 -25.3%, COc1ccccc1Nc1nn2c(=O)c3ccc(C(=O)NC4CCCCC4)cc3nc2s1 -14.8%, COc1ccc(CN(C(=O)c2ccc(OCC(C)C)cc2)C2CCS(=O)(=O)C2)cc1 (centres undefined) -9.23%, CC(CCc1ccccc1)NC(=O)Cn1ncc2c3ccccc3n(Cc3cccc(Cl)c3)c2c1=O (centres undefined) 1.43%, CC(NC(=O)c1ccc(Cn2c(SCc3ccccc3)nc3cccnc32)cc1)c1ccccc1 (centres undefined) -24.1%, COc1cccc(C2C=C(c3ccc(C)cc3)Nc3c(C(=O)Nc4ccc(F)cc4)cnn32)c1OC (centres undefined) -17.8%, O=C(Nc1ccccc1C(F)(F)F)N1Cc2ccccc2Oc2ncccc21 7.06%, CCOc1ccc(NC(=O)CSc2oc(-c3ccco3)nc2S(=O)(=O)c2ccc(Cl)cc2)cc1 -0.599%, CCN(CC)CCNC(=O)Cn1cnc2sc(C)c(S(=O)(=O)N3CCN(c4ccccc4OC)CC3)c2c1=O 2.76%, CCN1CCN(C(c2cccc(OC)c2)c2c(O)cc(C)n(Cc3ccco3)c2=O)CC1 (centres undefined) -7.27%, COc1ccc(NC(=O)CSc2nc(-c3ccccc3)c3ccccc3n2)cc1 -3.9%, Cc1cccc(C(=O)NCc2nnc(SCC(=O)Nc3ccccc3F)n2-c2ccccc2)c1 6.39%, CCc1cccc(-n2nnc(-c3nc(-c4ccc5c(c4)OCO5)no3)c2C)c1 -8.25%, COc1ccc(S(=O)(=O)N2CCN(C(=O)c3cc(-c4ccc(Br)cc4)n[nH]3)CC2)cc1OC -9.75%, CC(=O)N1c2ccc(S(=O)(=O)NCC3CCC(C(=O)Nc4cccc(F)c4)CC3)cc2CC1C (centres undefined) -0.445%, CC1CN(C(=O)Nc2ccc(C(=O)NCCc3ccc(Cl)cc3)cc2)c2ccccc2S1 (centres undefined) -11.2%, CCOc1ccc(NCc2cccn2-c2nnc(N3CCC(C(=O)NCCc4ccc(OCC)c(OCC)c4)CC3)s2)cc1 1.12%, CCN(CC)Cc1ccc2cc(COC(=O)Nc3ccc(C(=O)NO)cc3)ccc2c1 -4.01%, Cc1cccc(NC(=O)C(=O)NCC(c2cccnc2)N2CCN(Cc3ccccc3)CC2)c1 (centres undefined) 5.86%, Cn1c(C(=O)NCCc2ccccc2)cc2cc(S(=O)(=O)N3CCCCC3)ccc21 -0.0491%, CCCN1Cc2cccc(C(=O)Nc3ccccc3F)c2C1=O -92.1%, CCCC(=O)Nc1ccc2nc(SCCOc3ccccc3)sc2c1 1.15%, Cc1ccccc1NC(=O)CSCn1nnc2c(=O)[nH]c(Cc3ccc(F)cc3)nc21 -1.37%, COc1ccccc1C(=O)Nc1nnc(S(=O)(=O)N2CCCCC2)s1 36%, COc1ccc(Cl)cc1NC(=O)c1c(NCc2cccnc2)sc2c1CCCC2 5.41%, Cc1cc(-c2ccccc2)nc2cc(C(=O)Nc3ccc(Cl)c(Cl)c3)nn12 -1.7%, CC(C)c1cnc2c(c1SCC(=O)c1ccc(Cl)cc1)c(=O)n(C)c(=O)n2C -13.2%, COc1ccc2ncc3c(-c4ccccc4)nn(-c4ccc(C)c(C)c4)c3c2c1 -3.52%, Cc1ccccc1NC(=O)Cn1nnc(C(=O)NCc2ccco2)c1N 4.87%, COc1cc(OC)c(NC(=O)c2nn(C)c3c2COc2ccccc2-3)cc1Cl 0.334%, COc1ccccc1C(=O)NC1(C(F)(F)F)C(=O)NC(C)=C1C#N (centres undefined) -1.02%, COc1ccccc1N1CCN(C(=O)C2CCN(S(=O)(=O)c3cccs3)CC2)CC1 -9.4%, CCOC(=O)c1cnc2cc(Cl)c(OC)cc2c1Nc1ccc(Br)cc1C 2.76%, CCOc1ccc(OC(=O)c2sc3ncn(Cc4cccc(F)c4)c(=O)c3c2C)cc1 -16.7%, O=C(CSc1c2c(nc3ccc(Cl)cc13)CCCC2)N1CCN(c2ccc(Cl)cc2)CC1 -5.45%, Cc1ccc(-c2nnc(Nc3cccc(Br)c3)c3ccccc23)cc1S(=O)(=O)N1CCN(C)CC1 -25.1%, Cc1ccc(C)c(Cn2c(=O)n(CCc3ccccc3)c(=O)c3c(C)c(C)sc32)c1 2.04%, Cc1cccc(C(=O)Nc2nnc(S(=O)(=O)N3CCOCC3)s2)c1 0.377%, COc1ccc(OC)c(NC(=O)C(Cc2ccccc2)NS(=O)(=O)c2ccc3c(c2)CCC(=O)N3)c1 (centres undefined) -28.3%, Cc1cccc(C(=O)n2nc(-c3ccco3)nc2NCc2ccccc2)c1 -3.84%, COc1ccc(Cl)cc1S(=O)(=O)Nc1ccc2c(c1)n(C)c(=O)n2C -15.5%, CCN(CC)S(=O)(=O)c1ccc2c(c1)N(CC(=O)Nc1cccc(C(C)=O)c1)C(=O)CO2 9.81%, O=C(Nc1ccc(Br)cc1)Nc1nc2c(s1)CCCCCC2 -3.78%, CCOc1ccc(Br)cc1C1C(C(=O)Nc2ccccc2OC)=C(C)Nc2nnnn21 (centres undefined) -9.61%, CCc1ccc2oc(-c3cccc(NC(=O)c4ccc(-c5cccc([N+](=O)[O-])c5)o4)c3)nc2c1 44.4%

outcome, inactive:
CCOc1ccc(N(CC)S(=O)(=O)N2CCCC(C(=O)NCc3ccccc3OCC)C2)cc1 (centres undefined), O=C(CSc1nc2c([nH]c3ccccc32)c(=O)n1-c1ccccc1)Nc1ccccc1C(F)(F)F, Cc1nn(CC(=O)NC(C)c2ccccc2)c(=O)c2cc3occc3n12 (centres undefined), CCc1ccccc1-n1nnc(-c2nc(-c3ccccc3F)no2)c1C, Cc1[nH]c2ccccc2c1C1(O)C(=O)Nc2ccc(Cl)cc21 (centres undefined), Cc1cccc(NC(=O)CSc2nc(=O)n(CCN3CCOCC3)c3c2CCC3)c1, Cc1[nH]c2ccccc2c1C1(O)C(=O)N(Cc2ccccc2)c2ccc(Br)cc21 (centres undefined), COc1cccc(NC(=O)CN2C(=O)COc3ccc(S(=O)(=O)N4CCOCC4)cc32)c1, CCOC(=O)c1cc(-c2ccc(OC)cc2)n(CCC(=O)NC2CCC(C)CC2)c1C (centres undefined), COCCn1c(C)cc(O)c(C(c2ccc(OC)cc2)N2CCCCC2)c1=O (centres undefined), CCOC(=O)c1c(Nc2ccc(OCC)cc2)nnc(-c2ccccc2)c1-c1ccccc1, CC(C)(C)OC(=O)N1CCC(c2c(C(=O)NCCc3ccsc3)cnn2-c2ccc(F)cc2F)CC1, Cc1cccc(N2CCN(C(=O)C3CCN(S(=O)(=O)Cc4ccccc4)CC3)CC2)c1C, Cc1ccccc1NC(=O)Cn1c(=O)n(Cc2ccco2)c(=O)c2ccc(C(=O)NC3CCCC3)cc21, CSc1ccc(CCNS(=O)(=O)c2cc(-c3cc(C)no3)ccc2C)cc1, O=C(Nc1ccccc1)c1cc2c(-c3ccccc3)nn(-c3ccccc3)c2s1, COc1ccc(Cn2nc3n(c2=O)-c2ccccc2OC3)cc1, CCn1cc2nc(SCc3c(F)cccc3Cl)n(CCc3ccccc3)c(=O)c2n1, CCC(=O)N1c2ccccc2CC1C(=O)NCCCN1CCN(c2ccc(F)cc2)CC1 (centres undefined), O=C(COCc1cc(-c2ccc3c(c2)OCO3)on1)Nc1cccc(O)c1
